Article PMC4336329 (PLoS ONE, 2015)
The campaign covered roughly 310,000 compounds. About 2,200 (0.71%) showed an effect of 50% or more. The effect is printed as a negative number. The list shows a part of the results.

Molecular target: human ether-à-go-go-related gene (hERG) potassium channel (human, UniProt Q12809)
Test: primary screen, population patch clamp on CHO cells stably expressing hERG

Chain of human ether-à-go-go-related gene (hERG) potassium channel (Q12809 whole entry, looked up): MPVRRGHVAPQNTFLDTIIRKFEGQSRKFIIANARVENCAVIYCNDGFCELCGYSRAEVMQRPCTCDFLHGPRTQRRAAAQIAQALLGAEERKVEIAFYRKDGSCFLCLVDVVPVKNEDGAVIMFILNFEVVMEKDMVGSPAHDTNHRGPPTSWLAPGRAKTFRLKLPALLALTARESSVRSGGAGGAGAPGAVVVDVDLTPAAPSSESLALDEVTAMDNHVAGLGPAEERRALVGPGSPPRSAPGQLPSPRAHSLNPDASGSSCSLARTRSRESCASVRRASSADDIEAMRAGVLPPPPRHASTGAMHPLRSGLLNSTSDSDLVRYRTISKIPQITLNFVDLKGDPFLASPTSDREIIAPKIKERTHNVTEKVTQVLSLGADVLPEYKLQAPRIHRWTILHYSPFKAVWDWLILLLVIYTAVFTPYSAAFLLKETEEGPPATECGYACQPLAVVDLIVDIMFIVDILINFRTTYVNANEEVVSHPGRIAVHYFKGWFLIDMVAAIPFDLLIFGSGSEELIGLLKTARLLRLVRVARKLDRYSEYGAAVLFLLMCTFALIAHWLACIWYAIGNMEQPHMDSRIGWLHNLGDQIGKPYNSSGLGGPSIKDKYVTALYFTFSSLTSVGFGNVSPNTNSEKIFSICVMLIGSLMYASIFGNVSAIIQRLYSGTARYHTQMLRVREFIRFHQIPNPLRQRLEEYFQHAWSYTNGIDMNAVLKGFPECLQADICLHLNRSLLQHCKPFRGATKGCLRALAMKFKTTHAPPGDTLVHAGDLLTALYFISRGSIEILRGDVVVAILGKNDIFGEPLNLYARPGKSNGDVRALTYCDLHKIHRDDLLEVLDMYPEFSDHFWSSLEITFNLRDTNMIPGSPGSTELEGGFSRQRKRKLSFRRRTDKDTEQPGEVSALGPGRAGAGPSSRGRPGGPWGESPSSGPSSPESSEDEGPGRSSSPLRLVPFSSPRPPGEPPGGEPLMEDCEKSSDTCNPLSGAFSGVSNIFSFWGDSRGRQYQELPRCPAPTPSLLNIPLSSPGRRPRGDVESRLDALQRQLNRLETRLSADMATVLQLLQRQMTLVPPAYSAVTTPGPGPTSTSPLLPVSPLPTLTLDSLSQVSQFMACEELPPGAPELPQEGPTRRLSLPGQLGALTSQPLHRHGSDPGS

Structure (SMILES) | hERG current change (%, negative = inhibition) at 1uM
COC(=O)C1CSc2[nH]c(=O)sc2C1c1ccc(OC)c(OC)c1 (centres unmarked) | 11.2%
CNc1nc(N)c([N+](=O)[O-])c(Nc2cccc(F)c2)n1 | 12.4%
O=C(c1cc2c([nH]c1=O)CCCC2)N1CCc2c([nH]c3ccccc23)C1c1ccccc1F (centres unmarked) | 7.44%
CC(c1ccccc1)C(NC(=O)OCC1c2ccccc2-c2ccccc21)C(=O)O (centres unmarked) | 16.1%
CCC(=O)Nc1ccc(Nc2nc(Cl)nc(Nc3ccc(NC(=O)CC)cc3)n2)cc1 | 12.6%
O=C(NC(=S)NCCC1=CCCCC1)c1cncc(Br)c1 | 16.6%
O=C1C(Cl)=C(NCCN2CCCCC2)C(=O)c2ccccc21 | -4.12%
CCCCCCC(=O)NNC(=O)CC(=O)Nc1ccccc1C(=O)O | 16.4%
Cc1ccc(C(NC(=O)c2ccccc2S(C)(=O)=O)c2ccccc2)cc1 (centres unmarked) | 0.0168%
CCOC(=O)C1C(=O)NC(N2CCOCC2)=NC1c1ccco1 (centres unmarked) | 6.67%
OCCCc1cn(-c2ccccc2)c2ccccc12 | 10%
Cc1c(C)n(C(=O)CSc2nc3ccccc3[nH]2)c2ccccc12 | 8.5%
CC(=O)c1cccc(NC(=O)N2CCC(NC(=O)C3CCCCC3)CC2)c1 | 7.36%
Cc1nn(C)c(C)c1CN(Cc1nc(-c2cc(F)ccc2F)oc1C)C1CC1 | 5.04%
O=C(CN1C(=O)NC2(CCCC2)C1=O)c1ccc(Cl)s1 | 12.2%
CCOC(=O)c1c(C)c(C(=O)NCCN2CCOCC2)c(C)n1C | 5.82%
Cc1ccc(NS(=O)(=O)c2ccc3c(c2)CCC(=O)N3)cc1 | 2.43%
Nc1nc(SCC(=O)Nc2c(Br)cc([N+](=O)[O-])cc2Br)n[nH]1 | 11.6%
CCCCC(=NCCO)C1=C(O)C(C(=O)OC)C(C)(C)CC1=O (centres unmarked) | 3.94%

Structure (SMILES) | hERG current change (%, negative = inhibition) at 1uM
COCCNC(=O)Cc1ccc(F)cc1 | 7.39%
Cc1ccc(N/C=C2/Sc3ccccc3NC2=O)cc1 | 6.22%
C/C(=N\Nc1ncnc2sc(C)c(C)c12)c1ccccn1 | 6.42%
O=C(Nc1ccccc1C(=O)O)c1cc(S(=O)(=O)N2CCCCCC2)ccc1Cl | 18.8%
CCN(CC(=O)Nc1ccc(NC(C)=O)cc1)C(=O)COc1ccc(C(=O)c2ccccc2)cc1 | 10.3%
CCOc1cccc(-c2nn3c(-c4ccco4)nnc3s2)c1 | -26.2%
CCNC(=O)c1ccccc1-c1nc(-c2ccccc2Cl)no1 | 3.21%
O=C(Cn1c2ccc(F)cc2c2nc3n(c(=O)c21)CCS3)N1CCCC1 | 15.6%
O=C(Nc1nc2c(s1)CN(Cc1ccccc1)CC2)c1c(F)cccc1F | 8.37%
C[C@@H](O)[C@H]1C(=O)N2C(C(=O)O)=C(S[C@@H]3CN[C@H](C(=O)N(C)C)C3)[C@H](C)[C@H]12 | 14.8%
O=C(COc1ccc(Br)cc1)N1CCN(c2ncccn2)CC1 | -29.1%
O=C(OC(C(=O)NCC1CCCO1)c1ccccc1F)c1ccco1 (centres unmarked) | 13.9%
COc1ccccc1N1CCN(S(=O)(=O)c2cc3[nH]c(=O)c(=O)[nH]c3cc2C)CC1 | 14.1%
CCCCn1c(N)c(N(CCOC)C(=O)c2c(CC)noc2C)c(=O)[nH]c1=O | 18.7%
CCOC(=O)/C(C(=O)Nc1ccc(Br)cc1)=C1/NC(C)(C)Cc2ccccc21 | 1.22%
CC1CCN(S(=O)(=O)c2ccc(C(=O)N3CCCCC3C(=O)O)cc2)CC1 (centres unmarked) | 15.5%
CCC(=O)N1CCc2cc(S(=O)(=O)N3CCN(c4cc(Cl)ccc4C)CC3)ccc21 | 7.86%
CC(/C=C/c1ccccc1)=N\NC(N)=S | 13%
COc1ccc(C(=O)Nc2ccc(N3CCOCC3)cc2)cc1OC | 8.18%

Structure (SMILES) | hERG current change (%, negative = inhibition) at 1uM
CCCOC(=O)c1cc(-c2ccc(C=O)o2)ccc1Cl | 3.2%
CC1(C)CC(=O)C2=C(C1)Nc1ccccc1NC2 | 8.25%
O=C1Nc2ccc(Br)cc2C1(O)c1ccccc1 (centres unmarked) | 11.2%
CCOC(=O)N1CCN(C(=O)c2ccc3c(c2)N=C(C)c2cc(Cl)ccc2S3)CC1 | 12.1%
COc1cccc(/C(O)=C2/C(=O)C(=O)N(Cc3cccnc3)C2c2ccco2)c1 (centres unmarked) | 19.7%
Cc1cccnc1NC(=S)NC(=O)c1oc2ccccc2c1C | 10.9%
Cc1cc(-c2cccs2)c(C#N)c(=S)[nH]1 | 13.8%
O=C(CSc1nnc(Cc2ccccc2)n1-c1ccc(F)cc1)N1CCOCC1 | -2.26%
O=C(CSc1nc2c(cnn2-c2ccc(F)cc2)c(=O)[nH]1)N1CCCCC1 | 8.79%
N#CC(C#N)=C1C=CC=CN1/C(=C\c1ccco1)C(=O)c1ccc(Cl)cc1 | -1.03%
CC(C)(C)[C@H]1C=C(C(=O)N2CCN(Cc3ccc4c(c3)OCO4)CC2)O[C@@H](OCCCCO)C1 | -5.67%
C[C@@H](C(=O)Nc1ccc2ccccc2c1)[C@@H]1C[C@@]1(C)[C@@H](NC(=O)c1cccnc1)c1ccccc1 | 11.1%
Cc1ccc(C(=O)NCC(=O)N(C)CC(=O)Nc2c(Cl)cccc2Cl)s1 | 13.6%
CCOC(=O)COc1ccc(/C=C2/C(=O)NN(c3ccc(F)cc3)C2=O)cc1OC | 11.8%
Cc1ccc(C(=O)Nc2ccccc2C(=O)N2CCCC(C)C2)cc1 (centres unmarked) | 8.04%
Cc1ccc(S(N)(=O)=O)cc1 | 14.4%
[N-]=[N+]=N[C@@H](CCN1CC[C@H](NC(=O)OCc2ccccc2)CCC1=O)c1ccccc1 | 0.126%
COCCNC(=O)C(c1ccccc1C)N(C(=O)Cn1nnc2ccccc21)c1cccnc1 (centres unmarked) | 4.63%
